Results from publication PMC7507369.
These are yes or no findings as the source states them, for the method shown. In cells and extracts the contact can be indirect. Some entries that bind do so weakly or less than the wild type. For some of these results: Where a sequence is shown, tags or fusion partners need not be part of it.

T1: GFP-IRGM (human) (UniProt A1A4Y4)
T1 sequence: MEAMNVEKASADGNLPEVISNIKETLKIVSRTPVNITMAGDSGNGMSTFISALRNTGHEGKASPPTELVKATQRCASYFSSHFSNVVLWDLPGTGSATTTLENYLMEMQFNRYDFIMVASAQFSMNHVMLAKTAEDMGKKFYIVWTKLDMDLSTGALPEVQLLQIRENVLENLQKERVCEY

T2: Immunity Related GTPase M (IRGM), endogenous (human (endogenous in THP-1)) (UniProt A1A4Y4)
T2 sequence: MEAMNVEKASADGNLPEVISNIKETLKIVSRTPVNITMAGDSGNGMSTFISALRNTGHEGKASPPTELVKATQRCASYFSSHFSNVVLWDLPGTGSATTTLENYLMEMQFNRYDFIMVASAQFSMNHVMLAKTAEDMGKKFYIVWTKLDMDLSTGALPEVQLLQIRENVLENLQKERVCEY


Molecular target: T1, GFP-IRGM (human)
Assay: co-IP; GFP-IRGM and Flag-tagged proteins overexpressed in HEK293T, cell lysates; NP-40 lysis buffer, protein G dynabeads, 4°C; reverse co-IPs too; for cGAS, RIG-I and TLR3 also in control siRNA or p62 siRNA transfected cells

| binding | Binder |
| --- | --- |
| no binding | AIM2, overexpressed in HEK293T (protein, UniProt O14862 1-343) MESKYKEILLLTGLDNITDEELDRFKFFLSDEFNIATGKLHTANRIQVATLMIQNAGAVSAVMKTIRIFQKLNYMLLAKRLQEEKEKVDKQYKSVTKPKPLSQAEMSPAASAAIRNDVAKQRAAPKVSPHVKPEQKQMVAQQESIREGFQKRCLPVMVLKAKKPFTFETQEGKQEMFHATVATEKEFFFVKVFNTLLKDKFIPKRIIIIARYYRHSGFLEVNSASRVLDAESDQKVNVPLNIIRKAGETPKINTLQTQPLGTIVNGLFVVQKVTEKKKNILFDLSDNTGKMEVLGVRNEDTMKCKEGDKVRLTFFTLSKNGEKLQLTSGVHSTIKVIKAKKKT |
| no binding | Flag-NDP52 (protein, UniProt Q13137 1-446) MEETIKDPPTSAVLLDHCHFSQVIFNSVEKFYIPGGDVTCHYTFTQHFIPRRKDWIGIFRVGWKTTREYYTFMWVTLPIDLNNKSAKQQEVQFKAYYLPKDDEYYQFCYVDEDGVVRGASIPFQFRPENEEDILVVTTQGEVEEIEQHNKELCKENQELKDSCISLQKQNSDMQAELQKKQEELETLQSINKKLELKVKEQKDYWETELLQLKEQNQKMSSENEKMGIRVDQLQAQLSTQEKEMEKLVQGDQDKTEQLEQLKKENDHLFLSLTEQRKDQKKLEQTVEQMKQNETTAMKKQQELMDENFDLSKRLSENEIICNALQRQKERLEGENDLLKRENSRLLSYMGLDFNSLPYQVPTSDEGGARQNPGLAYGNPYSGIQESSSPSPLSIKKCPICKADDICDHTLEQQQMQPLCFNCPICDKIFPATEKQIFEDHVFCHSL |
| binds | Flag-RIG-I (protein, UniProt O95786 1-925) MTTEQRRSLQAFQDYIRKTLDPTYILSYMAPWFREEEVQYIQAEKNNKGPMEAATLFLKFLLELQEEGWFRGFLDALDHAGYSGLYEAIESWDFKKIEKLEEYRLLLKRLQPEFKTRIIPTDIISDLSECLINQECEEILQICSTKGMMAGAEKLVECLLRSDKENWPKTLKLALEKERNKFSELWIVEKGIKDVETEDLEDKMETSDIQIFYQEDPECQNLSENSCPPSEVSDTNLYSPFKPRNYQLELALPAMKGKNTIICAPTGCGKTFVSLLICEHHLKKFPQGQKGKVVFFANQIPVYEQQKSVFSKYFERHGYRVTGISGATAENVPVEQIVENNDIIILTPQILVNNLKKGTIPSLSIFTLMIFDECHNTSKQHPYNMIMFNYLDQKLGGSSGPLPQVIGLTASVGVGDAKNTDEALDYICKLCASLDASVIATVKHNLEELEQVVYKPQKFFRKVESRISDKFKYIIAQLMRDTESLAKRICKDLENLSQIQNREFGTQKYEQWIVTVQKACMVFQMPDKDEESRICKALFLYTSHLRKYNDALIISEHARMKDALDYLKDFFSNVRAAGFDEIEQDLTQRFEEKLQELESVSRDPSNENPKLEDLCFILQEEYHLNPETITILFVKTRALVDALKNWIEGNPKLSFLKPGILTGRGKTNQNTGMTLPAQKCILDAFKASGDHNILIATSVADEGIDIAQCNLVILYEYVGNVIKMIQTRGRGRARGSKCFLLTSNAGVIEKEQINMYKEKMMNDSILRLQTWDEAVFREKILHIQTHEKFIRDSQEKPKPVPDKENKKLLCRKCKALACYTADVRVIEECHYTVLGDAFKECFVSRPHPKPKQFSSFEKRAKIFCARQNCSHDWGIHVKYKTFEIPVIKIESFVVEDIATGVQTLYSKWKDFHFEKIPFDPAEMSK |

Molecular target: T2, Immunity Related GTPase M (IRGM), endogenous (human (endogenous in THP-1))
Assay: co-IP; immunoprecipitation of endogenous IRGM and endogenous sensor proteins in THP-1 cell lysates; NP-40 lysis buffer, protein G dynabeads, 4°C

| binding | Binder |
| --- | --- |
| no binding | AIM2, endogenous (protein, UniProt O14862 1-343) MESKYKEILLLTGLDNITDEELDRFKFFLSDEFNIATGKLHTANRIQVATLMIQNAGAVSAVMKTIRIFQKLNYMLLAKRLQEEKEKVDKQYKSVTKPKPLSQAEMSPAASAAIRNDVAKQRAAPKVSPHVKPEQKQMVAQQESIREGFQKRCLPVMVLKAKKPFTFETQEGKQEMFHATVATEKEFFFVKVFNTLLKDKFIPKRIIIIARYYRHSGFLEVNSASRVLDAESDQKVNVPLNIIRKAGETPKINTLQTQPLGTIVNGLFVVQKVTEKKKNILFDLSDNTGKMEVLGVRNEDTMKCKEGDKVRLTFFTLSKNGEKLQLTSGVHSTIKVIKAKKKT |
| no binding | MDA5, endogenous (protein, UniProt Q9BYX4 1-1025) MSNGYSTDENFRYLISCFRARVKMYIQVEPVLDYLTFLPAEVKEQIQRTVATSGNMQAVELLLSTLEKGVWHLGWTREFVEALRRTGSPLAARYMNPELTDLPSPSFENAHDEYLQLLNLLQPTLVDKLLVRDVLDKCMEEELLTIEDRNRIAAAENNGNESGVRELLKRIVQKENWFSAFLNVLRQTGNNELVQELTGSDCSESNAEIENLSQVDGPQVEEQLLSTTVQPNLEKEVWGMENNSSESSFADSSVVSESDTSLAEGSVSCLDESLGHNSNMGSDSGTMGSDSDEENVAARASPEPELQLRPYQMEVAQPALEGKNIIICLPTGSGKTRVAVYIAKDHLDKKKKASEPGKVIVLVNKVLLVEQLFRKEFQPFLKKWYRVIGLSGDTQLKISFPEVVKSCDIIISTAQILENSLLNLENGEDAGVQLSDFSLIIIDECHHTNKEAVYNNIMRHYLMQKLKNNRLKKENKPVIPLPQILGLTASPGVGGATKQAKAEEHILKLCANLDAFTIKTVKENLDQLKNQIQEPCKKFAIADATREDPFKEKLLEIMTRIQTYCQMSPMSDFGTQPYEQWAIQMEKKAAKEGNRKERVCAEHLRKYNEALQINDTIRMIDAYTHLETFYNEEKDKKFAVIEDDSDEGGDDEYCDGDEDEDDLKKPLKLDETDRFLMTLFFENNKMLKRLAENPEYENEKLTKLRNTIMEQYTRTEESARGIIFTKTRQSAYALSQWITENEKFAEVGVKAHHLIGAGHSSEFKPMTQNEQKEVISKFRTGKINLLIATTVAEEGLDIKECNIVIRYGLVTNEIAMVQARGRARADESTYVLVAHSGSGVIEHETVNDFREKMMYKAIHCVQNMKPEEYAHKILELQMQSIMEKKMKTKRNIAKHYKNNPSLITFLCKNCSVLACSGEDIHVIEKMHHVNMTPEFKELYIVRENKALQKKCADYQINGEIICKCGQAWGTMMVHKGLDLPCLKIRNFVVVFKNNSTKKQYKKWVELPITFPNLDYSECCLFSDED |
| binds | RIG-I, endogenous (protein, UniProt O95786 1-925) MTTEQRRSLQAFQDYIRKTLDPTYILSYMAPWFREEEVQYIQAEKNNKGPMEAATLFLKFLLELQEEGWFRGFLDALDHAGYSGLYEAIESWDFKKIEKLEEYRLLLKRLQPEFKTRIIPTDIISDLSECLINQECEEILQICSTKGMMAGAEKLVECLLRSDKENWPKTLKLALEKERNKFSELWIVEKGIKDVETEDLEDKMETSDIQIFYQEDPECQNLSENSCPPSEVSDTNLYSPFKPRNYQLELALPAMKGKNTIICAPTGCGKTFVSLLICEHHLKKFPQGQKGKVVFFANQIPVYEQQKSVFSKYFERHGYRVTGISGATAENVPVEQIVENNDIIILTPQILVNNLKKGTIPSLSIFTLMIFDECHNTSKQHPYNMIMFNYLDQKLGGSSGPLPQVIGLTASVGVGDAKNTDEALDYICKLCASLDASVIATVKHNLEELEQVVYKPQKFFRKVESRISDKFKYIIAQLMRDTESLAKRICKDLENLSQIQNREFGTQKYEQWIVTVQKACMVFQMPDKDEESRICKALFLYTSHLRKYNDALIISEHARMKDALDYLKDFFSNVRAAGFDEIEQDLTQRFEEKLQELESVSRDPSNENPKLEDLCFILQEEYHLNPETITILFVKTRALVDALKNWIEGNPKLSFLKPGILTGRGKTNQNTGMTLPAQKCILDAFKASGDHNILIATSVADEGIDIAQCNLVILYEYVGNVIKMIQTRGRGRARGSKCFLLTSNAGVIEKEQINMYKEKMMNDSILRLQTWDEAVFREKILHIQTHEKFIRDSQEKPKPVPDKENKKLLCRKCKALACYTADVRVIEECHYTVLGDAFKECFVSRPHPKPKQFSSFEKRAKIFCARQNCSHDWGIHVKYKTFEIPVIKIESFVVEDIATGVQTLYSKWKDFHFEKIPFDPAEMSK |
| no binding | TLR7, endogenous (receptor, UniProt Q9NYK1 27-1049) ARWFPKTLPCDVTLDVPKNHVIVDCTDKHLTEIPGGIPTNTTNLTLTINHIPDISPASFHRLDHLVEIDFRCNCVPIPLGSKNNMCIKRLQIKPRSFSGLTYLKSLYLDGNQLLEIPQGLPPSLQLLSLEANNIFSIRKENLTELANIEILYLGQNCYYRNPCYVSYSIEKDAFLNLTKLKVLSLKDNNVTAVPTVLPSTLTELYLYNNMIAKIQEDDFNNLNQLQILDLSGNCPRCYNAPFPCAPCKNNSPLQIPVNAFDALTELKVLRLHSNSLQHVPPRWFKNINKLQELDLSQNFLAKEIGDAKFLHFLPSLIQLDLSFNFELQVYRASMNLSQAFSSLKSLKILRIRGYVFKELKSFNLSPLHNLQNLEVLDLGTNFIKIANLSMFKQFKRLKVIDLSVNKISPSGDSSEVGFCSNARTSVESYEPQVLEQLHYFRYDKYARSCRFKNKEASFMSVNESCYKYGQTLDLSKNSIFFVKSSDFQHLSFLKCLNLSGNLISQTLNGSEFQPLAELRYLDFSNNRLDLLHSTAFEELHKLEVLDISSNSHYFQSEGITHMLNFTKNLKVLQKLMMNDNDISSSTSRTMESESLRTLEFRGNHLDVLWREGDNRYLQLFKNLLKLEELDISKNSLSFLPSGVFDGMPPNLKNLSLAKNGLKSFSWKKLQCLKNLETLDLSHNQLTTVPERLSNCSRSLKNLILKNNQIRSLTKYFLQDAFQLRYLDLSSNKIQMIQKTSFPENVLNNLKMLLLHHNRFLCTCDAVWFVWWVNHTEVTIPYLATDVTCVGPGAHKGQSVISLDLYTCELDLTNLILFSLSISVSLFLMVMMTASHLYFWDVWYIYHFCKAKIKGYQRLISPDCCYDAFIVYDTKDPAVTEWVLAELVAKLEDPREKHFNLCLEERDWLPGQPVLENLSQSIQLSKKTVFVMTDKYAKTENFKIAFYLSHQRLMDEKVDVIILIFLEKPFQKSKFLQLRKRLCGSSVLEWPTNPQAHPYFWQCLKNALATDNHVAYSQVFKETV |
